From the RNAGym collection of RNA variant scans (doi:10.7554/elife.90254) come the findings set out here.

Sequences and labels used below:
B1: LINE1-mini (parent)
chain: GGCAGAGCUCAACACAGCGUGGCAAAGUGGCUGUGGCUAGACUGCC

Read counts are not given, so values of variants with three or more changes are uncertain.

This data set covers variants of B1. The data set is described as follows: self-cleavage, relative activity (ratio to wild type); higher = more cleavage; in vitro, sequencing; the parent is a self-cleaving ribozyme.
Turning to C3A A4C A24U G36U, the self-cleavage turned out to be 0.12. Next, G2U U9A G17C G29A: 0.06; G2U U9A A26U U34C A41C: 0.05. Consider G2U G5U U9C G29C U34C C45G, for which the self-cleavage came out at 0.03. As for G2U G21U G35C G40A, the self-cleavage was 0.02. As for G2U G29U G35A G40A, the figure is 0.09; as for G2U U20A A25U G29A C42A, 0.35; as for G2U G27A C37A U38G A41C, 0.01. Next, C3A A4C G17C G30C G35U U38A U43A G44U: 0.07.

With G2U U38C A39C C45A, the self-cleavage was 0.01. Next, C3A A6C G7U C13G G36U C42A: 0.09. Next, C3A A6C G36C A39C A41C: 0.17; C3A A11G A12G A26C G30U: 0.01; G2U C23A C45A: 0.31. For G2U G7U U34A U38G, the self-cleavage worked out at 0.

On to C3A A4G G35C C45A, for which the self-cleavage is 0.11. Next, G2U G7A C23G C45U: 0.06; G2U U32C C45U C46A: 0; G2U G5U C10A A12G A24G G33U: 0.01.

Consider G2U U38A G40A G44U, for which the self-cleavage turned out to be 0.02.

With C3A A6G A25C, the self-cleavage amounted to 0.3. As for G2U G7U G17U G35U G36U, the figure is 0.04; as for G2U G40U U43C, 0.14; as for C3A A11C A26C, 0.04. Take C3A A6G U34G G35U: the self-cleavage was 0.3. Consider C3A A4C G21C U32C, for which the self-cleavage is 0.02. As for G2U G7C G36A, the self-cleavage amounted to 0.26. As to G2U C23G A24U A41C, the self-cleavage came out at 0.02. As for C3A A11C U28G, the figure is 0.05. For the variant G2U C23U C37U, the self-cleavage was 0.02. As for G2U C37A A41U, the figure is 0.06; as for G2U C23G C37A U38A, 0.02. Turning to G2U G5C A14U C18A G19C C31A, the self-cleavage came to 0.03. Regarding G2U U20C C23G A39G U43C, the self-cleavage is 0.05. As for C3A A6U G19U G40C, the figure is 0.23. Next, C3A A4G A39G: 0.52; G2U G5A A14C G29A G40A: 0.01; G2U C31G U38A C46A: 0. Consider G2U U9C G33C G40A, for which the self-cleavage was determined as 0.02. Next, G2U U9A G21U C23A U34C: 0.09; G2U U28C C37A U38A C42G: 0.04; C3A A6G C18U C37G: 0.03. Take C3A A6C U9A A12C C18A U34A: the self-cleavage stood at 0.03. Consider C3A A6C G7C G21C A25C, for which the self-cleavage was found to be 0.15. Consider C3A A4C G19U G21C, for which the self-cleavage was determined as 0.07. As for G2U G19U G33C G40A, the figure is 0.02; as for C3A A4U G22C G36U, 0.3. As for C3A A11C A41U, the figure is 0.04; as for G2U G19C A24G, 0.05; as for C3A A4G C13A G35U, 0.36.

With G2U G22U U28G C31A C45U, the self-cleavage is 0.28. With G2U G29C U43A G44C, the self-cleavage was 0.01. Next, C3A A4G G7A A14C C15A: 0.46. Next, C3A A6C U28C U32A C45U: 0.06. On to C3A A6C C18A G19C G35A G36C, for which the self-cleavage turned out to be 0.1. As for C3A A6C C31G, the figure is 0.02. As to G2U G5A C8A G27C C37G, the self-cleavage came out at 0.01. Next, G2U G5A A6U G30C G33U G36A: 0.03. On to G2U U34C C46A, for which the self-cleavage came to 0.02. As to C3A A4G A16U, the self-cleavage came out at 0. As for G2U G19U A39G, the self-cleavage was 0.01. Turning to G2U G19U G27C C45U C46A, the self-cleavage was 0.04. Next, G2U G5C C10U A11C G19U: 0.01; G2U G7A A24C G27C G30U C46G: 0.15; C3A A6C C37G U38C: 0.27. For G2U U28C A39U, the self-cleavage worked out at 0.13. As for C3A A4U G7A A11G, the figure is 0.08. As for C3A A11G G27U, the figure is 0.11.

Regarding C3A A4C C8G G40U U43G, the self-cleavage turned out to be 0.03. Next, G2U G17U C23U C31G C46A: 0.21. As for C3A A6U U20A A25G A26C C42G, the self-cleavage is 0.07. Next, G2U G29C A41U: 0.03; C3A A4C C42G: 0.06; G2U G36U A39U: 0.05. For G2U G21A G35A, the self-cleavage is 0.11. As for G2U G7C C8U C45U, the figure is 0.08; as for G2U U9C U43C C45U C46U, 0.01. On to C3A A4C C13A G40U, for which the self-cleavage was found to be 0.07. As for G2U G22U G27A C37U C42A G44A, the figure is 0.35. For the variant C3A A6C C10A U38A, the self-cleavage amounted to 0.04. Regarding G2U G22U G27U C31U A39C, the self-cleavage amounted to 0.01.

As for C3A A4C C37G, the self-cleavage was 0.08.

Turning to G2U G30C C42U, the self-cleavage was 0.05. G2U G33U C37G G44U: the self-cleavage was found to be 0.02. As for G2U G33C G36C, the figure is 0.04; as for G2U U28A G36U C42U C46G, 0.07. As for C3A A4G G21C, the figure is 0.08; as for C3A A4C C10U A11G C23A A25U, 0.02.

In the case of G2U U38G C45U, the self-cleavage stood at 0.01. As for G2U G22A A25C, the figure is 0.04; as for G2U U9G A11C C15A A26U U43A, 0; as for G2U U34C U38G C42U, 0.01. With C3A A6C G29U, the self-cleavage was 0.23. As for G2U C23G C45G, the figure is 0.08; as for G2U G40C C42G C46G, 0.02; as for G2U G17U C31G, 0.08. Next, G2U G5C G30C G36A A41C: 0.02. As for C3A A11C U38A G40U, the self-cleavage was found to be 0.01. Turning to G2U G19C C23G A24U G33C C45G, the self-cleavage stood at 0.01.

As to G2U U20C C23G A24C, the self-cleavage worked out at 0.07. Next, G2U G7C A12G C31G: 0.08. With G2U U20C U38A, the self-cleavage turned out to be 0.02. Next, G2U G35U G36U: 0.62; G2U G5U A6C G7U A16G G36U: 0.12; G2U G5U C10U G19A: 0. With C3A A6U A26G G27A, the self-cleavage is 0.27. As for G2U G27A C42U, the figure is 0.04; as for C3A A4C C10U G33A G35A C37U, 0.05. Turning to C3A A4C A6C G27C C42A, the self-cleavage came out at 0.16. As for C3A A6U G27C G29A, the self-cleavage amounted to 0.05. On to C3A A11G G22A C42A, for which the self-cleavage worked out at 0.02. As for G2U G7A G22C C42A, the figure is 0.01; as for C3A A11G A16G G17A G29U G35C G36C, 0. Take G2U C42A C46G: the self-cleavage stood at 0.13. As for G2U U28G G35A C42U, the self-cleavage turned out to be 0.03.

For the variant G2U G5A C13A G35A, the self-cleavage was 0.05. Consider C3A A6U A12C U20A, for which the self-cleavage turned out to be 0.03. Take G2U C23G A39C: the self-cleavage worked out at 0.02. As for G2U U9G C10G C13G G19C, the figure is 0; as for G2U G5A G21A C37A, 0.12.

In the case of C3A A6G A11C G19U G29A G44A C46U, the self-cleavage amounted to 0.01. As for G2U G27A G35U, the self-cleavage was 0.06. As for C3A A4G C15A U28A, the figure is 0.13. Regarding C3A A11C C13A C37G, the self-cleavage amounted to 0.03. On to G2U G5U A16U G22A, for which the self-cleavage was 0.03. As to C3A A6G C10U G27A, the self-cleavage worked out at 0.26. Turning to C3A A6U C10A A11C A16U G33U U34C, the self-cleavage came to 0.02. Next, G2U U32G U34C C46G: 0; G2U U28G G35U C45A: 0.02; C3A A6G G7A A11U C15A A41U: 0.02. Turning to G2U G7A C13G A25C, the self-cleavage stood at 0.04. As for G2U G17A G22A, the figure is 0.02.

With G2U G19A A24C U34C G40C, the self-cleavage was 0.01. As for G2U G7A C8G A26C G36C, the figure is 0.15; as for C3A A4C A24G U34G, 0.1. Next, G2U G19U C37U: 0.03; G2U G22U C31U U34G: 0.01; C3A A11G G19A G21U C23U: 0.03. As for G2U G5C C18A G19A G21A, the figure is 0.01; as for G2U U9C A26G C37U, 0.05; as for G2U U32G G40A, 0.03. As for C3A A6U A12U A25C A26C G27U, the self-cleavage came out at 0.07. For the variant G2U G5U G27U C31G, the self-cleavage worked out at 0.02.

G2U G7C G35U: the self-cleavage worked out at 0.07. Next, G2U G7A G22C C37A U43A: 0.02; G2U G5U A14G: 0.01. Consider G2U G33A U38G, for which the self-cleavage was 0.

With G2U G21U G27U G35C G40U, the self-cleavage amounted to 0.01. As for G2U U32G C45U C46U, the figure is 0.01; as for G2U G40C G44C, 0.03; as for C3A A6U G33U U38G, 0.19. Next, C3A A4G C10A A16C C42A: 0.01; C3A A6U G22U C31U G35U: 0.08. As to C3A A4U U9A G33U A39U, the self-cleavage was determined as 0.21. As for G2U G29A U32A, the figure is 0.03; as for G2U U9C A25G, 0; as for G2U G5A G30U C31G A41C C46U, 0.01.

As to C3A A11C G29A U43A, the self-cleavage is 0.08. Next, G2U U28A A39G: 0; G2U G5C A26G: 0.02; G2U G21C G30A: 0.08. Next, G2U G5U U9C A16G G33C: 0.01.

G2U U32C G36A C45G: the self-cleavage is 0.02.

For the variant C3A A6G G7C C8A C10A A24G, the self-cleavage is 0.06.

For G2U G7A A16G U32G, the self-cleavage worked out at 0.05.

Regarding G2U U34A A41G, the self-cleavage worked out at 0. Next, G2U G17A C42G G44U C45A: 0.
